This note sets out measurements from the supplement of paper PMC10037445.

For assay [1], the system named is RAW-Dual. The assay can be described thus: IRF Lucia reporter activity, fold change vs agonist alone; cytotoxicity flag (confluency mask): cytotoxic (confluency <70% of control); higher = enhanced IRF activity. The essentials:
(§1)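 After 50 nL of library stock was delivered by pin tool to RAW-Dual macrophages (50,000 cells/well, DMEM, 384-well plates), a PRR agonist was added 1 h later and the plates were kept at 37 °C, 5% CO2. Twenty hours later, IRF was read from supernatant by QuantiLuc luminescence and NF-κB by QuantiBlue absorbance at 620 nm. Reporter activity is stated as fold change over agonist-alone wells. Wells with IncuCyte confluency under 70% of agonist controls in both mask sets were counted as cytotoxic.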

Assay [2] concerns RAW-Dual. The assay can be described thus: IRF Lucia reporter activity, fold change vs agonist alone; higher = enhanced IRF activity. The following applies: library stock concentration (final ~1000-fold dilution): 10 mM, agonist: MPLA (TLR4) […]. The essentials:
as §1

The subject of assay [3] is RAW-Dual. Nature of the assay: IRF Lucia reporter activity, fold change vs agonist alone; cytotoxicity flag (confluency mask): not cytotoxic; higher = enhanced IRF activity. The essentials:
as §1

The mark [4] stands for this setting: agonist: 3'3'-cGAMP (STING) 10 ug/mL.
[5] abbreviates: cytotoxicity flag (confluency mask): cytotoxic (confluency <70% of control).
[6] abbreviates: cytotoxicity flag (confluency mask): not cytotoxic.

“And” between values parts separate entries of the source, which are not always exact repeats. Identical values can stand only once. Over roughly 2,900 compounds, “IRF Lucia reporter activity, fold change vs agonist alone” has its median near 0.9; the highest 2% begin near 2.8. The list shows a part of the results.

On to `Cc1cc(Nc2cc(N3CCN(C)CC3)nc(/C=C/c3ccccc3)n2)n[nH]1` (library stock concentration (final ~1000-fold dilution): 10 mM), for which the “IRF Lucia reporter activity” value in the assay with RAW-Dual [1] (setting [4]) was 0.0105; in the assay on RAW-Dual [1] (agonist: LPS (TLR4) 0.1 ug/mL), 0.0236.

For `Cc1cc(Nc2cc(N3CCN(C)CC3)nc(/C=C/c3ccccc3)n2)n[nH]1`, the “IRF Lucia reporter activity” value with RAW-Dual [2] (setting [5]) stood at 0.0174.

Regarding `Cc1nc(C#Cc2ccnc(Cl)c2)c(C)n1-c1ccc(OC(F)(F)F)cc1` (library stock concentration (final ~1000-fold dilution): 10 mM), the “IRF Lucia reporter activity” value in the assay with RAW-Dual [1] (setting [4]) worked out at 0.355; in the assay with RAW-Dual [1] (agonist: LPS (TLR4) 0.1 ug/mL), 0.642.

As to `Cc1nc(C#Cc2ccnc(Cl)c2)c(C)n1-c1ccc(OC(F)(F)F)cc1`, in the assay with RAW-Dual [2] (setting [5]), the “IRF Lucia reporter activity” value was 1.3.

For `CN(C)c1cccc(-c2c3c(=O)n(-c4ccccc4Cl)[nH]c3cc(=O)n2C)c1` (library stock concentration (final ~1000-fold dilution): 10 mM), the “IRF Lucia reporter activity” value in the assay with RAW-Dual [3] (setting [4]) came out at 0.903; in the assay on RAW-Dual [3] (agonist: LPS (TLR4) 0.1 ug/mL) it was 0.593.

With `CN(C)c1cccc(-c2c3c(=O)n(-c4ccccc4Cl)[nH]c3cc(=O)n2C)c1`, the “IRF Lucia reporter activity” value in the assay on RAW-Dual [2] (setting [6]) came out at 1.05.

In the case of `CCCCOc1nc(N)c2c(n1)N(Cc1cccc(CN3CCCC3)c1)CC(=O)N2` (library stock concentration (final ~1000-fold dilution): 1 mM), the “IRF Lucia reporter activity” value with RAW-Dual [3] (setting [4]) stood at 1.33; with RAW-Dual [3] (agonist: LPS (TLR4) 0.1 ug/mL) it was 1.29.

As to `COC(=O)C1=C(C)NC(C)=C(C(=O)OCCN(C)Cc2ccccc2)C1c1cccc([N+](=O)[O-])c1` (stereo not given) (library stock concentration (final ~1000-fold dilution): 10 mM), the entries for the “IRF Lucia reporter activity” value with RAW-Dual [3] (setting [4]) and with RAW-Dual [3] (agonist: LPS (TLR4) 0.1 ug/mL) were 0.307 and 1.51, respectively.

In the case of `COC(=O)C1=C(C)NC(C)=C(C(=O)OCCN(C)Cc2ccccc2)C1c1cccc([N+](=O)[O-])c1` (stereo not given), in the assay on RAW-Dual [2] (setting [6]), the “IRF Lucia reporter activity” value is 1.14.

In the case of `CC(=O)SC1CC2=CC(=O)CCC2(C)C2CCC3(C)C(CCC34CCC(=O)O4)C12` (stereo not given) (library stock concentration (final ~1000-fold dilution): 10 mM), the “IRF Lucia reporter activity” value amounted to 0.862 with RAW-Dual [3] (setting [4]) and 0.791 in the assay on RAW-Dual [3] (agonist: LPS (TLR4) 0.1 ug/mL).

Regarding `CC(=O)SC1CC2=CC(=O)CCC2(C)C2CCC3(C)C(CCC34CCC(=O)O4)C12` (stereo not given), the “IRF Lucia reporter activity” value in the assay on RAW-Dual [2] (setting [6]) was 0.825.

In the case of `CN(C)C(=O)COC(=O)Cc1ccc(OC(=O)c2ccc(NC(=N)N)cc2)cc1.CS(=O)(=O)O` (library stock concentration (final ~1000-fold dilution): 10 mM), the entries for the “IRF Lucia reporter activity” value in the assay on RAW-Dual [3] (setting [4]) and with RAW-Dual [3] (agonist: LPS (TLR4) 0.1 ug/mL) were 1.03 and 1.16, respectively.

With `CN(C)C(=O)COC(=O)Cc1ccc(OC(=O)c2ccc(NC(=N)N)cc2)cc1.CS(=O)(=O)O`, in the assay with RAW-Dual [2] (setting [6]), the “IRF Lucia reporter activity” value was 1.1.

As for `O=c1cc(-c2ccc(O)cc2)oc2cc(O)ccc12` (library stock concentration (final ~1000-fold dilution): 10 mM), the “IRF Lucia reporter activity” value in the assay with RAW-Dual [3] (setting [4]) is 0.732; with RAW-Dual [3] (agonist: LPS (TLR4) 0.1 ug/mL), 0.812.

For the molecule `CN(C/C=C/C#CC(C)(C)C)Cc1cccc2ccccc12.Cl`, the “IRF Lucia reporter activity” value in the assay with RAW-Dual [2] (setting [6]) was found to be 1.21.

Take `CN(C/C=C/C#CC(C)(C)C)Cc1cccc2ccccc12.Cl` (library stock concentration (final ~1000-fold dilution): 10 mM): the “IRF Lucia reporter activity” value was 1.25 in the assay on RAW-Dual [3] (setting [4]) and 1.2 in the assay with RAW-Dual [3] (agonist: LPS (TLR4) 0.1 ug/mL).

On to `CC1(C)CNc2cc(NC(=O)c3cccnc3NCc3ccncc3)ccc21` (library stock concentration (final ~1000-fold dilution): 10 mM), for which the “IRF Lucia reporter activity” value with RAW-Dual [3] (agonist: LPS (TLR4) 0.1 ug/mL) was 0.645 and 0.698.

`CC(=O)Oc1cc2c(cc1Cl)C(c1ccccc1C(=O)O)c1cc(Cl)c(OC(C)=O)cc1O2` (library stock concentration (final ~1000-fold dilution): 10 mM): the “IRF Lucia reporter activity” value with RAW-Dual [3] (setting [4]) turned out to be 0.728; with RAW-Dual [3] (agonist: LPS (TLR4) 0.1 ug/mL), 1.15.

For the molecule `COCCn1c2c([n+](Cc3cnccn3)c1C)C(=O)c1ccccc1C2=O` (library stock concentration (final ~1000-fold dilution): 10 mM), the “IRF Lucia reporter activity” value was 0.0183 with RAW-Dual [1] (setting [4]) and 0.0223 in the assay with RAW-Dual [1] (agonist: LPS (TLR4) 0.1 ug/mL).

Regarding `COCCn1c2c([n+](Cc3cnccn3)c1C)C(=O)c1ccccc1C2=O`, the “IRF Lucia reporter activity” value in the assay on RAW-Dual [2] (setting [5]) amounted to 0.0332.

In the case of `O=C1Cc2c([nH]c3ccc(Br)cc23)-c2ncccc2N1`, in the assay with RAW-Dual [2] (setting [6]), the “IRF Lucia reporter activity” value came to 0.212.

As to `O=C1Cc2c([nH]c3ccc(Br)cc23)-c2ncccc2N1` (library stock concentration (final ~1000-fold dilution): 10 mM), the “IRF Lucia reporter activity” value in the assay with RAW-Dual [3] (setting [4]) stood at 0.282; with RAW-Dual [3] (agonist: LPS (TLR4) 0.1 ug/mL), 0.268.

For `COc1ccc2cc(OCC3(C(=O)O)CN(C(=O)c4ccc(F)cc4)C3)ccc2c1`, in the assay on RAW-Dual [2] (setting [6]), the “IRF Lucia reporter activity” value is 1.18.

In the case of `COc1ccc2cc(OCC3(C(=O)O)CN(C(=O)c4ccc(F)cc4)C3)ccc2c1` (library stock concentration (final ~1000-fold dilution): 10 mM), the “IRF Lucia reporter activity” value with RAW-Dual [3] (setting [4]) came out at 1.04; in the assay with RAW-Dual [3] (agonist: LPS (TLR4) 0.1 ug/mL), 1.14.

On to `COC(=O)C1=C(C)NC(C)=C(C(=O)OCC(C)C)C1c1ccccc1[N+](=O)[O-]` (stereo not given), for which the “IRF Lucia reporter activity” value with RAW-Dual [2] (setting [6]) is 0.508.

As for `COC(=O)C1=C(C)NC(C)=C(C(=O)OCC(C)C)C1c1ccccc1[N+](=O)[O-]` (stereo not given) (library stock concentration (final ~1000-fold dilution): 10 mM), the “IRF Lucia reporter activity” value stood at 0.585 in the assay on RAW-Dual [3] (setting [4]) and 0.872 in the assay with RAW-Dual [3] (agonist: LPS (TLR4) 0.1 ug/mL).
